Laboratory results from PubChem BioAssay AID1745853 (National Center for Advancing Translational Sciences (NCATS), 2022).
The list shows a part of the results. The main result of the screen is listed elsewhere. These columns were measured beside it and carry no call.

Legend:
Assay in all cases: Primary Screen for Target Class Profiling of Small Molecule Inhibitors of Methyltransferases
[1] = biological target: Glycine N-methyltransferase (Homo sapiens) (UniProt Q14749); details: purified enzyme, MTase-Glo SAH luminescence; measured here: GNMT inhibition; at 40 µM; stronger effect = lower value
In short: (§1)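 Each enzyme was reacted with SAM and its substrate, with compounds tested once at 40 uM; SAH formed was read by MTase-Glo luminescence.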

[2] = biological target: Guanidinoacetate N-methyltransferase (Homo sapiens) (UniProt Q14353); details: purified enzyme, MTase-Glo SAH luminescence; measured here: GAMT inhibition; at 40 µM; stronger effect = lower value
In short: as §1

[3] = biological target: Histamine N-methyltransferase (Homo sapiens) (UniProt P50135); details: purified enzyme, MTase-Glo SAH luminescence; measured here: HNMT inhibition; at 40 µM; stronger effect = lower value
In short: as §1

[4] = biological target: Nicotinamide N-methyltransferase (Homo sapiens) (UniProt P40261); details: purified enzyme, MTase-Glo SAH luminescence; measured here: NNMT inhibition; at 40 µM; stronger effect = lower value
In short: as §1

[5] = biological target: Phenylethanolamine N-methyltransferase (Homo sapiens) (UniProt P11086); details: purified enzyme, MTase-Glo SAH luminescence; measured here: PNMT inhibition; at 40 µM; stronger effect = lower value
In short: as §1
On the % scale 0 is the no-effect control and ±100 the full control effect.

Row | Compound | activity change, negative = inhibition [1] | activity change, negative = inhibition [2] | activity change, negative = inhibition [3] | activity change, negative = inhibition [4] | activity change, negative = inhibition [5]
1 | CCOCCCNC(=O)CCn1ccc2cc(S(=O)(=O)N3CCCC3)ccc21 | -1.28% | 4.86% | -0.064% | 2.8% | 1.38%
2 | CCCn1c(=O)c2ccc(C(=O)NC(C)CC)cc2n2c(=O)n(CC(=O)Nc3ccc(CC)cc3)nc12 (stereo not drawn) | 1.12% | -0.041% | -2.13% | -3.02% | -5.06%
3 | COCCc1noc(CC2CCOC3(CCN(C(=O)C4CCOCC4)CC3)C2)n1 (stereo not drawn) | 1.18% | -1.26% | 1.89% | -1.67% | -2.27%
4 | CCCCN(CC)CCN1C(=O)c2cc3sccc3n2CC1(C)C(=O)NC1CCCCCC1 (stereo not drawn) | -5.15% | 3.72% | -21.7% | -8.8% | -1.14%
5 | CC1=C2C[C@@]3(C)C(CCC[C@@H]3C)C(O)C2OC1=O (stereo partly drawn) | 4.94% | 5.81% | 6.63% | -9.58% | 6.42%
6 | O=C(NCc1ccc2c(c1)OCO2)c1nc(-c2ccc(F)cc2)c2cnccn12 | -7.47% | -0.259% | -0.238% | -6.79% | 12.3%
7 | CCCCN1C(=O)c2cc(C(=O)Nc3cc(Cl)ccc3C)nn2CC1(C)C(=O)NC1CCCC1 (stereo not drawn) | 2.93% | 0% | 2.17% | 2.16% | 2.59%
8 | COCc1ncc(C)n1CCNC(=O)c1cc(-c2cc(C)ccc2C)n[nH]1 | -2.16% | -0.791% | -3.94% | -5.75% | -3.32%
9 | CN1C(=O)CC[C@H]1c1cccnc1 | 3.33% | 8.16% | 2.05% | -2.67% | 9.06%
10 | COCCCNC(=O)c1cc(C)nc2onc(C3CCCNC3)c12 (stereo not drawn) | -1.89% | 0.726% | 0.824% | 3.41% | 0.939%
11 | CCOC(=O)c1cc2n(n1)CC(C)(C(=O)NC1CCCC1)N(c1cccc(SC)c1)C2=O (stereo not drawn) | 0.303% | 5.12% | -3.09% | 2.87% | 2.8%
12 | CC(C)c1ccc(N2C(=O)N[C@@H]3CCN(C(=O)C4CCCC4)[C@@H]3C2=O)cc1 | -5.78% | -12.2% | -2.63% | -6.64% | -0.799%
13 | COCCC1(NC(=O)C2CC2)CCN(C(=O)c2ccccn2)CC1 | -0.819% | -1.8% | 1.56% | 0.08% | -4.6%
14 | CCCNC(=O)c1c(-c2ccccc2)cc(=O)n2c1CCC2 | -4.21% | -9.52% | -3.24% | -9.95% | -6.46%
15 | CCCC1c2cccn2CCN1C(=O)Nc1ccccc1OC (stereo not drawn) | 3.96% | 0.658% | -20.7% | 6.62% | 10.7%
16 | Cc1c(CN2CCN(C(=O)[C@H](C)O)CC2)sc2c(N3CCOCC3)nc(-c3cnc(N)nc3)nc12 | – | 6.83% | – | -27.4% | -14.2%

Row | Compound | activity change, negative = inhibition [1] | activity change, negative = inhibition [2] | activity change, negative = inhibition [3] | activity change, negative = inhibition [4] | activity change, negative = inhibition [5]
17 | O=C(c1c[nH]c2ncccc12)N1CCC(Cc2ccccc2)CC1 | -15% | -8.83% | -16.1% | -26.2% | -3.45%
18 | CC(C)Cn1c(=O)c2ccc(C(=O)NC(C)C)cc2n2c(=O)n(Cc3ccc(F)cc3Cl)nc12 | 3.42% | 4.72% | 4.27% | -1.34% | 2.59%
19 | CN1CCC(OC2CCN(C(=O)c3cccc(F)c3)CC2)CC1 | -2.77% | 1.84% | -10.8% | -2.83% | -3.61%
20 | CCCn1c(=O)c2ccccc2n2c(SCc3cc(C)ccc3C)nnc12 | -4.27% | 0% | 5.62% | -10.6% | 3.68%
21 | CC1(C)C=Cc2c(ccc3c2[N+]([O-])=C2C3(O)CC34NC(=O)C5(CCCN5C3=O)CC4C2(C)C)O1 (stereo not drawn) | -5.37% | -7.34% | 2.37% | -18.2% | -0.806%
22 | Cc1cnc(-c2cc(N3CCN(C(=O)CCS(C)(=O)=O)CC3)ncc2Cl)c(C)c1 | 4.88% | 3.44% | 10.7% | -20.6% | 0.441%
23 | CCCn1c(=O)c2ccc(C(=O)NCC(C)C)cc2n2c(SCC(=O)c3ccccc3)nnc12 | 6.36% | 0.455% | 6.9% | 8.33% | 5.24%
24 | CNC(=O)c1cc[nH]c1C1CCCN(C(=O)c2ccc(Cn3cncn3)o2)C1 (stereo not drawn) | -5.27% | -8.61% | -3.26% | -12.4% | -10.1%
25 | CC(C)CCN1CCC2(C1)C(=O)N(c1ccccc1)c1ccccc12 (stereo not drawn) | -4.6% | -2.52% | -4.35% | -17% | -5.95%
26 | C=C1C(OC(C)=O)CCC2(C)CCC(C(C)(C)O)CC12 (stereo not drawn) | 2.35% | 10.5% | 5.92% | -4.63% | 3.02%
27 | COc1cccc(Cn2nc3n(CCC(C)C)c(=O)c4ccc(C(=O)NC5CCCC5)cc4n3c2=O)c1 | 4.67% | 1.84% | 11.4% | 0.538% | 5.69%
28 | Fc1ccc(N2CCCCC2)c(NC(=S)c2ccncc2)c1 | -5.01% | -13.6% | -1.27% | -26.7% | -56.5%
29 | O=C(Nc1ccc2c(c1)OCCO2)N1CCCCC1c1nc(CCOCC2CC2)no1 (stereo not drawn) | -4.55% | -8.09% | -1.62% | -7.61% | 1.36%
30 | COc1cccc(CN2C(=O)c3cc4ccccc4n3CC2(C)C(=O)NC2CCCC2)c1OC (stereo not drawn) | 4.54% | 3.26% | 4.58% | -5.39% | -0.136%
31 | CC(C)OCCCn1c(=O)c2ccccc2n2c(=O)n(Cc3c(F)cccc3Cl)nc12 | -11% | -1.09% | 2.35% | -18.8% | -4.52%
